The list shows a part of the results. The list includes weakly bound sequences.

These results are taken from PMC12820563.

This assay deals with T1, MBP-FoxP3dN (UniProt Q99JB6).
T1 sequence: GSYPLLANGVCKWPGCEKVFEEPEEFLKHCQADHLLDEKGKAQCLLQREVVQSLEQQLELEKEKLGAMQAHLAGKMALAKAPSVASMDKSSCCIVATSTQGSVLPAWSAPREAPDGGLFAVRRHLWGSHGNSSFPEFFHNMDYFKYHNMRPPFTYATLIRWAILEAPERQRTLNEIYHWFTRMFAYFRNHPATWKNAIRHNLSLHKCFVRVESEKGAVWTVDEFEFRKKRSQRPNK
The assay is described as follows: PD-seq (MBP pull-down with sequencing). The note with it: 20 mM Tris-HCl pH 7.5, 100 mM NaCl, 1.5 mM MgCl2, 0.4 uM protein, 0.1 uM dsDNA library, 30 min, room temperature, amylose pull-down; high values mean tight binding; double strand, one strand shown.
Consider “GATGATTGTTCTCCCAGCTGATGAATTAAATCTCTCGAGTAAACAAATTTTCCTAATCTTTCTGTTCAAGCGCCATCTAC”, for which the binding signal (RPM ratio (pull-down/input)) worked out at 0.29.
As for “GATGATTGTTCTCCCAGCTGATGAATTGGCCCGGTCGAGTAAACAAATTTTCCTAATCTTTCTGTTCAAGCGCCATCTAC”, the figure is 0.201; as for “GATGATTGTTCTCCCAGCTGATGAATTAATCTAATCGAGTAAACAAATTTTCCTAATCTTTCTGTTCAAGCGCCATCTAC”, 0.272.
Next, “GATGATTGTTCTCCCAGCTGATGAATTAAGGCAATCGAGTAAACAAATTTTCCTAATCTTTCTGTTCAAGCGCCATCTAC”: 2.02; “GATGATTGTTCTCCCAGCTGATGAATTATGCATCTCGAGTAAACAAATTTTCCTAATCTTTCTGTTCAAGCGCCATCTAC”: 7.47; “GATGATTGTTCTCCCAGCTGATGAATTGCCAGCCTCGAGTAAACAAATTTTCCTAATCTTTCTGTTCAAGCGCCATCTAC”: 0.644.
Next, “GATGATTGTTCTCCCAGCTGATGAATTCCCGGACTCGAGTAAACAAATTTTCCTAATCTTTCTGTTCAAGCGCCATCTAC”: 0.164; “GATGATTGTTCTCCCAGCTGATGAATTGCCGGAATCGAGTAAACAAATTTTCCTAATCTTTCTGTTCAAGCGCCATCTAC”: 0.356.
“GATGATTGTTCTCCCAGCTGATGAATTTATCGCATCGAGTAAACAAATTTTCCTAATCTTTCTGTTCAAGCGCCATCTAC”: the binding signal (RPM ratio (pull-down/input)) turned out to be 1.55.
As for “GATGATTGTTCTCCCAGCTGATGAATTATATTTTTCGAGTAAACAAATTTTCCTAATCTTTCTGTTCAAGCGCCATCTAC”, the figure is 2.87.
As for “GATGATTGTTCTCCCAGCTGATGAATTCAGTAAGTCGAGTAAACAAATTTTCCTAATCTTTCTGTTCAAGCGCCATCTAC”, the figure is 0.414; as for “GATGATTGTTCTCCCAGCTGATGAATTTGGCGATTCGAGTAAACAAATTTTCCTAATCTTTCTGTTCAAGCGCCATCTAC”, 1.21; as for “GATGATTGTTCTCCCAGCTGATGAATTGGTGTTTTCGAGTAAACAAATTTTCCTAATCTTTCTGTTCAAGCGCCATCTAC”, 2.17.
Next, “GATGATTGTTCTCCCAGCTGATGAATTATGTATTTCGAGTAAACAAATTTTCCTAATCTTTCTGTTCAAGCGCCATCTAC”: 4.76; “GATGATTGTTCTCCCAGCTGATGAATTGGGCGAGTCGAGTAAACAAATTTTCCTAATCTTTCTGTTCAAGCGCCATCTAC”: 0.613; “GATGATTGTTCTCCCAGCTGATGAATTTAGGCGCTCGAGTAAACAAATTTTCCTAATCTTTCTGTTCAAGCGCCATCTAC”: 0.736.
Regarding “GATGATTGTTCTCCCAGCTGATGAATTTTCCGGCTCGAGTAAACAAATTTTCCTAATCTTTCTGTTCAAGCGCCATCTAC”, the binding signal (RPM ratio (pull-down/input)) came out at 0.18.
Next, “GATGATTGTTCTCCCAGCTGATGAATTCAGTGTATCGAGTAAACAAATTTTCCTAATCTTTCTGTTCAAGCGCCATCTAC”: 2.25; “GATGATTGTTCTCCCAGCTGATGAATTAATTAGATCGAGTAAACAAATTTTCCTAATCTTTCTGTTCAAGCGCCATCTAC”: 0.42; “GATGATTGTTCTCCCAGCTGATGAATTCGAAAATTCGAGTAAACAAATTTTCCTAATCTTTCTGTTCAAGCGCCATCTAC”: 0.238.
As to “GATGATTGTTCTCCCAGCTGATGAATTGTACACCTCGAGTAAACAAATTTTCCTAATCTTTCTGTTCAAGCGCCATCTAC”, the binding signal (RPM ratio (pull-down/input)) worked out at 0.663.
As for “GATGATTGTTCTCCCAGCTGATGAATTAACCTCTTCGAGTAAACAAATTTTCCTAATCTTTCTGTTCAAGCGCCATCTAC”, the figure is 0.239; as for “GATGATTGTTCTCCCAGCTGATGAATTTCCTTGATCGAGTAAACAAATTTTCCTAATCTTTCTGTTCAAGCGCCATCTAC”, 0.223.
As for “GATGATTGTTCTCCCAGCTGATGAATTCATGTACTCGAGTAAACAAATTTTCCTAATCTTTCTGTTCAAGCGCCATCTAC”, the figure is 1.55.
As for “GATGATTGTTCTCCCAGCTGATGAATTAACAGCATCGAGTAAACAAATTTTCCTAATCTTTCTGTTCAAGCGCCATCTAC”, the figure is 0.978.
Turning to “GATGATTGTTCTCCCAGCTGATGAATTTCTCGGCTCGAGTAAACAAATTTTCCTAATCTTTCTGTTCAAGCGCCATCTAC”, the binding signal (RPM ratio (pull-down/input)) stood at 0.178.
Next, “GATGATTGTTCTCCCAGCTGATGAATTTGGGCAATCGAGTAAACAAATTTTCCTAATCTTTCTGTTCAAGCGCCATCTAC”: 1.78; “GATGATTGTTCTCCCAGCTGATGAATTCAAAACCTCGAGTAAACAAATTTTCCTAATCTTTCTGTTCAAGCGCCATCTAC”: 0.276.
As for “GATGATTGTTCTCCCAGCTGATGAATTAACACACTCGAGTAAACAAATTTTCCTAATCTTTCTGTTCAAGCGCCATCTAC”, the figure is 0.554; as for “GATGATTGTTCTCCCAGCTGATGAATTTGTGCGCTCGAGTAAACAAATTTTCCTAATCTTTCTGTTCAAGCGCCATCTAC”, 1.87.
As for “GATGATTGTTCTCCCAGCTGATGAATTGGCAGGGTCGAGTAAACAAATTTTCCTAATCTTTCTGTTCAAGCGCCATCTAC”, the figure is 0.278; as for “GATGATTGTTCTCCCAGCTGATGAATTTAAAACTTCGAGTAAACAAATTTTCCTAATCTTTCTGTTCAAGCGCCATCTAC”, 0.206; as for “GATGATTGTTCTCCCAGCTGATGAATTTCCATGATCGAGTAAACAAATTTTCCTAATCTTTCTGTTCAAGCGCCATCTAC”, 0.271.
As for “GATGATTGTTCTCCCAGCTGATGAATTGCAGATATCGAGTAAACAAATTTTCCTAATCTTTCTGTTCAAGCGCCATCTAC”, the binding signal (RPM ratio (pull-down/input)) was found to be 0.744.
Next, “GATGATTGTTCTCCCAGCTGATGAATTCAGGTTGTCGAGTAAACAAATTTTCCTAATCTTTCTGTTCAAGCGCCATCTAC”: 0.849.
As for “GATGATTGTTCTCCCAGCTGATGAATTCTCTCTTTCGAGTAAACAAATTTTCCTAATCTTTCTGTTCAAGCGCCATCTAC”, the figure is 0.263; as for “GATGATTGTTCTCCCAGCTGATGAATTCCTCCCCTCGAGTAAACAAATTTTCCTAATCTTTCTGTTCAAGCGCCATCTAC”, 0.186; as for “GATGATTGTTCTCCCAGCTGATGAATTTTCGTTGTCGAGTAAACAAATTTTCCTAATCTTTCTGTTCAAGCGCCATCTAC”, 0.712.
Next, “GATGATTGTTCTCCCAGCTGATGAATTGATAAAGTCGAGTAAACAAATTTTCCTAATCTTTCTGTTCAAGCGCCATCTAC”: 0.242; “GATGATTGTTCTCCCAGCTGATGAATTGCACGTATCGAGTAAACAAATTTTCCTAATCTTTCTGTTCAAGCGCCATCTAC”: 1.22.
For “GATGATTGTTCTCCCAGCTGATGAATTTTGCGGGTCGAGTAAACAAATTTTCCTAATCTTTCTGTTCAAGCGCCATCTAC”, the binding signal (RPM ratio (pull-down/input)) came to 1.32.
As for “GATGATTGTTCTCCCAGCTGATGAATTACGTTTATCGAGTAAACAAATTTTCCTAATCTTTCTGTTCAAGCGCCATCTAC”, the figure is 2.86; as for “GATGATTGTTCTCCCAGCTGATGAATTCCAGCATTCGAGTAAACAAATTTTCCTAATCTTTCTGTTCAAGCGCCATCTAC”, 4.11.
As for “GATGATTGTTCTCCCAGCTGATGAATTAAGACTATCGAGTAAACAAATTTTCCTAATCTTTCTGTTCAAGCGCCATCTAC”, the figure is 0.47; as for “GATGATTGTTCTCCCAGCTGATGAATTTCCAATTTCGAGTAAACAAATTTTCCTAATCTTTCTGTTCAAGCGCCATCTAC”, 0.267; as for “GATGATTGTTCTCCCAGCTGATGAATTTTAGGCATCGAGTAAACAAATTTTCCTAATCTTTCTGTTCAAGCGCCATCTAC”, 0.78.
Take “GATGATTGTTCTCCCAGCTGATGAATTTTCCGTTTCGAGTAAACAAATTTTCCTAATCTTTCTGTTCAAGCGCCATCTAC”: the binding signal (RPM ratio (pull-down/input)) is 0.295.
On to “GATGATTGTTCTCCCAGCTGATGAATTTAGTATTTCGAGTAAACAAATTTTCCTAATCTTTCTGTTCAAGCGCCATCTAC”, for which the binding signal (RPM ratio (pull-down/input)) worked out at 3.31.
As for “GATGATTGTTCTCCCAGCTGATGAATTTCAGCATTCGAGTAAACAAATTTTCCTAATCTTTCTGTTCAAGCGCCATCTAC”, the figure is 4.99; as for “GATGATTGTTCTCCCAGCTGATGAATTAGGTTTATCGAGTAAACAAATTTTCCTAATCTTTCTGTTCAAGCGCCATCTAC”, 2.69.
On to “GATGATTGTTCTCCCAGCTGATGAATTCTCGCGCTCGAGTAAACAAATTTTCCTAATCTTTCTGTTCAAGCGCCATCTAC”, for which the binding signal (RPM ratio (pull-down/input)) came to 0.399.
For the sequence “GATGATTGTTCTCCCAGCTGATGAATTTACAGTCTCGAGTAAACAAATTTTCCTAATCTTTCTGTTCAAGCGCCATCTAC”, the binding signal (RPM ratio (pull-down/input)) turned out to be 0.574.
Next, “GATGATTGTTCTCCCAGCTGATGAATTGATCCCTTCGAGTAAACAAATTTTCCTAATCTTTCTGTTCAAGCGCCATCTAC”: 0.327; “GATGATTGTTCTCCCAGCTGATGAATTCCCGCGATCGAGTAAACAAATTTTCCTAATCTTTCTGTTCAAGCGCCATCTAC”: 0.419.
As for “GATGATTGTTCTCCCAGCTGATGAATTAAATAAGTCGAGTAAACAAATTTTCCTAATCTTTCTGTTCAAGCGCCATCTAC”, the figure is 0.361; as for “GATGATTGTTCTCCCAGCTGATGAATTGTGATACTCGAGTAAACAAATTTTCCTAATCTTTCTGTTCAAGCGCCATCTAC”, 1.63; as for “GATGATTGTTCTCCCAGCTGATGAATTTCCACTCTCGAGTAAACAAATTTTCCTAATCTTTCTGTTCAAGCGCCATCTAC”, 0.354.
Next, “GATGATTGTTCTCCCAGCTGATGAATTCCCTCATTCGAGTAAACAAATTTTCCTAATCTTTCTGTTCAAGCGCCATCTAC”: 0.325; “GATGATTGTTCTCCCAGCTGATGAATTAGAGGGATCGAGTAAACAAATTTTCCTAATCTTTCTGTTCAAGCGCCATCTAC”: 0.306.
For “GATGATTGTTCTCCCAGCTGATGAATTGATGTTATCGAGTAAACAAATTTTCCTAATCTTTCTGTTCAAGCGCCATCTAC”, the binding signal (RPM ratio (pull-down/input)) stood at 2.08.
As for “GATGATTGTTCTCCCAGCTGATGAATTAAATTAGTCGAGTAAACAAATTTTCCTAATCTTTCTGTTCAAGCGCCATCTAC”, the figure is 0.74; as for “GATGATTGTTCTCCCAGCTGATGAATTCGGGACCTCGAGTAAACAAATTTTCCTAATCTTTCTGTTCAAGCGCCATCTAC”, 0.277.
As for “GATGATTGTTCTCCCAGCTGATGAATTCTCTACTTCGAGTAAACAAATTTTCCTAATCTTTCTGTTCAAGCGCCATCTAC”, the figure is 0.233.
